Laboratory results from the supplement of paper PMC11417369.
± gives the standard deviation of the averaged measurements. Some of the results follow.

These sequences were tested on PfAP2-EXP AP2 domain (GST-tagged) (assay: gcPBM binding intensity (ln(normalized median fluorescence intensity)); higher = stronger DNA binding).
Method in brief: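 GST-tagged P. falciparum DNA-binding domains produced in E. coli were incubated for 1 h on an Agilent 4 × 180k array of primer-extended double-stranded 36-bp intergenic genomic probes with negative controls. Binding intensity is the highest Masliner-normalised natural-log median intensity across replicate spots of either probe orientation, with bound protein detected by Alexa488 anti-GST antibody at 488 nm.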

Row | Sequence | gcPBM binding intensity (ln)
1 | TTTTGTTGAAAAAAAAAAAAAAAATTAAATTAAATT [GTGCAC_negctrl_site636] | 8.12 ± 0.34
2 | CATAGACACGAACATACACACGGACATACATACGGA [CACACA_site8101] | 8.93 ± 0.71
3 | GTAACAAATTAATAGTGTACATATTTTAAAAAAATA [XGTACX_site7150] | 8.4 ± 0.34
4 | GTGTTAAATTTTTGAACATGCAAGTTTTATTATTGA [TGCATGCA_site478] | 9.34 ± 0.33
5 | AATGCAAAGGTGAAAGAACACACAAAAAAAAAAAAA [CACACA_site9333] | 8.55 ± 0.64
6 | ATATTATAAATATAATGTACGTTTTAATTTCATGTT [XGTACX_site3557] | 8.48 ± 0.4
7 | ATATATAATTATTGAAGTACTTGTTCATAAAATGGT [XGTACX_site5656] | 8.74 ± 0.38
8 | AAAATAAAATGAAAACGTACATGATAAATTTTAATT [XGTACX_site4199] | 8.8 ± 0.47
9 | TATATGAGCATAAAGACACACAAATAAAACCAAACA [CACACA_site3856] | 8.88 ± 0.45
10 | AGAACAATTCTGTGGTGTACCAAAAAAAATTTAATT [XGTACX_site8082] | 8.52 ± 0.37
11 | AAAATAAATAAATATACACACCATATTTATATTTTT [CACACA_site7361] | 8.34 ± 0.38
12 | ATATTTAAATTTTGCACACGCATATGAAATTAGGAC [CACACA_site1035] | 8.88 ± 0.3
13 | TAAATGAATTTTACTATACACACGTATACATTTGTA [CACACA_site1210] | 8.34 ± 0.49
14 | TAATTTGTTATTTATTGTACAAACATTATATGTTAA [XGTACX_site6637] | 8.38 ± 0.38
15 | TACTACACACATTCATGTACTTGATAAATTAATGAT [XGTACX_site6444] | 8.53 ± 0.22
16 | ATAACTAATATGAAATGTACCCATCAAAGTGTGCAT [XGTACX_site4463] | 8.32 ± 0.35
17 | AAAATTAAAATACGTACACACCTTATCTTTTTGGCT [CACACA_site4311] | 8.56 ± 0.28
18 | TTATAACATCTTAAATGTACAAATATGTGCTTATTT [XGTACX_site7285] | 8.545 ± 0.049
19 | ATATTAAAATACAGTGCATGTTAAAAATATATTATA [TGCATGCA_site977] | 9.38 ± 0.17

Row | Sequence | gcPBM binding intensity (ln)
20 | ATGTATTTATATACTTGTACGTAAGATGTATTATAT [XGTACX_site908] | 8.59 ± 0.38
21 | TAAAAAAAAAACATCTGTACCAATTTTTATGTATAA [XGTACX_site5196] | 8.07 ± 0.38
22 | AATAAAAGTTCACCTGTACACACATATATATATGTA [CACACA_site8500] | 8.76 ± 0.34
23 | TTAATTCGTACATACACACGCACATATATATATATA [CACACA_site1469] | 10.1 ± 0.38
24 | ATTGGAAAATATGTTATATATATATATATATATATG [CACACA_negctrl_site116] | 8.715 ± 0.049
25 | AATAATAATAGAAACACACACACATCTTTAATAATA [CACACA_site4805] | 8.63 ± 0.69
26 | ATATTTTTTTTCTACACACATACAAATATATATTAT [CACACA_site2359] | 8.97 ± 0.46
27 | CTTTTTCGCATGAAAAGTACATGAAATATATTACAT [XGTACX_site8971] | 8.42 ± 0.35
28 | ACATGCAACCATTCGGGTACAGAAATAAATATATAC [XGTACX_site4174] | 8.98 ± 0.2
29 | AATAACTTTTTAAACACACACACATATAAATAAATA [CACACA_site6196] | 8.72 ± 0.57
30 | GGTTATAACGCACATGCACACGTAAATAAATATTAT [CACACA_site9277] | 9.17 ± 0.37
31 | TAAATTTTAATAAATACACACAAATTTTAATTCTAT [CACACA_site6039] | 8.22 ± 0.39
32 | TATTGTATATAATAAACACACAATATTAAAAATATA [CACACA_site1057] | 8.22 ± 0.45
33 | TATTTAAAAAACACATGTACGAGTATTATATATAAA [XGTACX_site6654] | 8.72 ± 0.34
34 | TAATATACTTAATACACACACGAATATTTATAAATA [CACACA_site6675] | 8.62 ± 0.41
35 | CCCCTCGAAATAATTTGTACGAATATATTGTCTGTA [XGTACX_site8308] | 9.71 ± 0.32
36 | AAACTCAACTTATATACACACAATCTTTTTTTTTTA [CACACA_site29] | 8.36 ± 0.4
37 | GATTCATCTAAACACCGTACATATTATATATATATA [XGTACX_site6030] | 9.43 ± 0.67
38 | AGTATATTAAAAAATACACACGTATTATATCTACAT [CACACA_site8844] | 8.28 ± 0.35

Row | Sequence | gcPBM binding intensity (ln)
39 | GTTCATAAATTAAACACACACACACCGCTGGATACC [CACACA_site5779] | 8.86 ± 0.5
40 | GATTATATATTAAAAAGTACTTTATAAATACTTCTA [XGTACX_site8992] | 8.34 ± 0.37
41 | CATATACATTGTATATGTACATATATATATATATAT [XGTACX_site3772] | 10.1 ± 0.36
42 | TGATGCAAAATATATACACACATATATATATATATA [CACACA_site3052] | 10.1 ± 0.32
43 | TATACCACCCGATATACACACTTGTAGACATCTTTT [CACACA_site4268] | 8.6 ± 0.49
44 | TATGGGTTTATATAGGTGCAATATATGTATATATAA | 8.77 ± 0.13
45 | AACCATTGGGAAAGGGTGCACATATATATATATATA | 10.8 ± 0.35
46 | AGCAATATTTATTAAAGTACGTAAAAAAAATTCTCA [XGTACX_site6550] | 8.45 ± 0.53
47 | ACAAAACTCTTTAATTGTACAAATATAATATAAAAA [XGTACX_site5690] | 8.6 ± 0.39
48 | TATATAGTTTATATTTGTACATATAGACATTTATAA [XGTACX_site6414] | 8.23 ± 0.3
49 | TCTTATTATAAAAGGAGTACATCAATTAGATGTTCC [XGTACX_site8465] | 8.28 ± 0.33
50 | ATATATATATAATATTGTACATAGTAGACATCACAC [XGTACX_site4649] | 9.48 ± 0.27
51 | CAAAGCATAGTATGATGTACAAATGTTCCTATAATA [XGTACX_site8642] | 8.59 ± 0.39
52 | TTATGTTTATACACTACACACATTATTCATAAAAAA [CACACA_site4637] | 8.55 ± 0.31
53 | TAAAATATGGAAATCACACATTTATTAAAATATATA [CACACA_site4623] | 8.12 ± 0.39
54 | TATATATGTATAAGAGTGCATATGCATATATGTATA [GTGCAC_site9692] | 8.69 ± 0.17
55 | CATCTTAAATAAGAACGTACATTTTTTTTGATGAGA [XGTACX_site3462] | 8.23 ± 0.37
56 | AAGACAAAACAAAGAAGTACATATATATATATATAT [XGTACX_site4067] | 10.3 ± 0.4
57 | GGAGACTTTGTACAAACACACACATGAACACAATAT [CACACA_site8376] | 9.06 ± 0.55
